{"source": "paper PMC6919601", "about": "“Identification of Plasmodium dipeptidyl aminopeptidase allosteric inhibitors by high throughput screening” (PLoS ONE, 2019)", "note": "Out of some 110,000 compounds screened, about 230 (0.21%) showed an effect of 50% or more. Some of the results follow.", "data": [{"molecular_target": "DPAP1 (Plasmodium falciparum, UniProt Q8IIJ9)", "sequence (Q8IIJ9 whole entry, looked up)": "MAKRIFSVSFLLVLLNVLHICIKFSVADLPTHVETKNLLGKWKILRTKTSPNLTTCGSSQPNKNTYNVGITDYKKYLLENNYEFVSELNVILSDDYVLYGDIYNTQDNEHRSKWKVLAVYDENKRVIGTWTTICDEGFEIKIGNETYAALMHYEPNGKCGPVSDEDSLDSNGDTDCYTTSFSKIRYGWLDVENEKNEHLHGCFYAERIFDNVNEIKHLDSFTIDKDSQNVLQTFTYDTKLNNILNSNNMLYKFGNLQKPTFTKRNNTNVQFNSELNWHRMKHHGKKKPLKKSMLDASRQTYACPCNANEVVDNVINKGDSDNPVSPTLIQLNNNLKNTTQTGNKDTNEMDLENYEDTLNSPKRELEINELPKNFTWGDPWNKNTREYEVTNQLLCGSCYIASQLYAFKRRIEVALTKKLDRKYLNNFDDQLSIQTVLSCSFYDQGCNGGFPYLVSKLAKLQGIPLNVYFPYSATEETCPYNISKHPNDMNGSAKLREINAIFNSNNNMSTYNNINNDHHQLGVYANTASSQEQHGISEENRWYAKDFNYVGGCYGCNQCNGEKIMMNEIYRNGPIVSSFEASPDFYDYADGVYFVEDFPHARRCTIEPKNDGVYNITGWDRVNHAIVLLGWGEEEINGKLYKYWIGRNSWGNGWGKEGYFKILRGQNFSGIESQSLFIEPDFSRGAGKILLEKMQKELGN", "experiment": "primary screen, percent inhibition; read by cleavage of a fluorogenic dipeptide substrate; higher = more effect of the substance", "parameters": "species or system P. falciparum D10 trophozoite lysates; single well", "units": {"% Inhibition @ 10 uM": "%"}, "values": [{"compound": "CCOC(=O)C1=C(CC)OC(N)=C(C#N)C1c1ccc(F)c(Br)c1", "note": "(centres unmarked);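 further: 30 min substrate incubation versus DMSO and 10 µM JCP410 controls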", "% Inhibition @ 10 uM": -0.197}, {"compound": "O=C1CCc2nc3sc4c(c3c(=O)n2N1)CCCC4", "% Inhibition @ 10 uM": 3.04}, {"compound": "CNS(=O)(=O)c1cn(CC(=O)NCCc2ccc(Cl)cc2)cc1S(=O)(=O)NC", "% Inhibition @ 10 uM": -5.32}, {"compound": "COc1ccc(Cc2nnc(SCC(=O)Nc3nc(-c4ccccc4)cs3)o2)cc1", "% Inhibition @ 10 uM": -6.44}, {"compound": "COC1(c2ccccc2)c2ccccc2Oc2ccccc21", "% Inhibition @ 10 uM": 4.63}, {"compound": "Cc1ccc(Cn2cc(CCC(=O)N3CCC4(CC3)OCCO4)c3ccccc32)cc1", "% Inhibition @ 10 uM": -0.822}, {"compound": "Cc1cccc(N(CC(=O)Nc2ccccc2F)S(C)(=O)=O)c1", "% Inhibition @ 10 uM": -0.62}, {"compound": "COc1ccc(C2C3=C(O)CC(C)(C)CC3=NC(C)=C2C(=O)OCCc2ccccc2)c(OC)c1", "note": "(centres unmarked)", "% Inhibition @ 10 uM": 5.94}, {"compound": "C=CCC1(C#N)C(SC)=NC2=C(C(=O)CC(C)(C)C2)C1c1ccccc1", "note": "(centres unmarked)", "% Inhibition @ 10 uM": -4.11}, {"compound": "O=C(COc1ccc(S(=O)(=O)NCc2ccccc2)cc1Cl)N1CCCCCC1", "% Inhibition @ 10 uM": -3.33}, {"compound": "CCOCCCNC(=O)Cn1cnc2c1c(=O)n(C)c(=O)n2C", "% Inhibition @ 10 uM": 0.222}, {"compound": "CCC(C(=O)NC1CCCC1)n1c(SCc2cccc(F)c2)nc2cccnc21", "note": "(centres unmarked)", "% Inhibition @ 10 uM": -3.88}, {"compound": "Cn1c(=O)c(S(=O)C(C)(C)C)c(O)c2ccccc21", "note": "(centres unmarked)", "% Inhibition @ 10 uM": 4.61}, {"compound": "CC1(C)CC(=O)C2=C(C1)N(c1nnc(SCc3ccccc3)s1)C(=O)CC2c1ccccc1", "note": "(centres unmarked)", "% Inhibition @ 10 uM": 0.9}, {"compound": "CCOc1cc(C=C2C(=O)N(C)C(=O)N(C)C2=O)cc(Cl)c1OCc1ccccc1", "% Inhibition @ 10 uM": -1.93}, {"compound": "Cc1cc(C)c(NC(=O)CNC2CC(C)(C)NC(C)(C)C2)c(C)c1", "% Inhibition @ 10 uM": 0.986}, {"compound": "CC(NS(=O)(=O)c1ccc([N+](=O)[O-])cc1)c1ccccc1", "note": "(centres unmarked)", "% Inhibition @ 10 uM": 3.31}, {"compound": "CCN1CCN(C(=O)CSCc2cnn(-c3ccccc3)c2-n2cccc2)CC1", "% Inhibition @ 10 uM": 2.27}, {"compound": "Cc1cccc(C(=O)N(Cc2cccs2)C2CCS(=O)(=O)C2)c1", "note": "(centres unmarked)", "% Inhibition @ 10 uM": 3.29}, {"compound": "CCN(CC)CC#CC(CN1CCCCC1)N1CCCCC1", "note": "(centres unmarked)", "% Inhibition @ 10 uM": -1.98}, {"compound": "O=C(CCSc1nc2cc(Cl)ccc2o1)N1CCCCC1", "% Inhibition @ 10 uM": 2.01}, {"compound": "CCCCN(C)C(=O)c1ccc(CS(=O)(=O)c2ccccc2C)o1", "% Inhibition @ 10 uM": -3.09}, {"compound": "CCC1(C)Nc2ccccc2C(=O)N1c1ccc(OC)cc1", "note": "(centres unmarked)", "% Inhibition @ 10 uM": -10.8}, {"compound": "COc1cccc(-c2noc(-c3cc4c(ccc5ccccc54)oc3=O)n2)c1OC", "% Inhibition @ 10 uM": -3.73}, {"compound": "Cc1ccc(C(=O)Nc2ccc(Cl)cc2)cc1", "% Inhibition @ 10 uM": -6.08}, {"compound": "CN(C1CCCCC1)S(=O)(=O)c1ccc(-c2cc(C(F)(F)F)no2)s1", "% Inhibition @ 10 uM": 4.87}, {"compound": "CCN(c1ccccc1)S(=O)(=O)c1ccc(NC(=O)C2CCCCC2)cc1", "% Inhibition @ 10 uM": -9.59}, {"compound": "Cc1nc2nc(-c3ccccc3)nn2c(O)c1C", "% Inhibition @ 10 uM": 5.7}, {"compound": "CC(C)c1cc(NCc2cccnc2)n2c(nc3ccccc32)c1C#N", "% Inhibition @ 10 uM": -4.49}, {"compound": "O=C(Cn1c(COc2ccccc2)nc2ccccc21)N1CCOCC1", "% Inhibition @ 10 uM": -1.72}, {"compound": "Cc1cccn2c(=O)c3cc(C#N)c(=N)n(CC4CCCO4)c3nc12", "note": "(centres unmarked)", "% Inhibition @ 10 uM": 2.38}, {"compound": "O=C(NCC1CCNCC1)c1ccccn1", "% Inhibition @ 10 uM": 1.76}, {"compound": "N#CCCS(=O)(=O)c1ccc(-c2ccc(S(=O)(=O)CCC#N)cc2)cc1", "% Inhibition @ 10 uM": -7.32}, {"compound": "O=C(c1ccncc1)N1CCNCC1", "% Inhibition @ 10 uM": 3.01}, {"compound": "CCCN1C(=O)c2[nH]nc(-c3ccc(OC)cc3)c2C1c1ccc(O)cc1", "note": "(centres unmarked)", "% Inhibition @ 10 uM": -1.07}, {"compound": "Cc1cccc(OCCOCCN2CCCC2)c1", "% Inhibition @ 10 uM": -3.78}, {"compound": "CCCCN1C(=O)S/C(=C\\c2cc(C)n(C)c2C)C1=O", "% Inhibition @ 10 uM": -3.74}, {"compound": "CCOc1ccc2nc(C(=O)N3CCCCC3)sc2c1", "% Inhibition @ 10 uM": -5.76}, {"compound": "O=C(CCNS(=O)(=O)c1ccc2nc(O)ccc2c1)NCc1ccc2c(c1)OCO2", "% Inhibition @ 10 uM": -5.23}, {"compound": "COc1ccc(-c2nc(-c3ccc(OC)c(OC)c3)[nH]c2-c2ccc(OC)cc2)cc1", "% Inhibition @ 10 uM": 0.132}, {"compound": "CCOC(=O)c1c(NC(=O)c2ccccc2)sc2c1CC(C(C)C)OC2", "note": "(centres unmarked)", "% Inhibition @ 10 uM": 0.222}, {"compound": "Cc1cc(C)c(C#N)c(SCC(=O)NCc2ccco2)n1", "% Inhibition @ 10 uM": 1.76}, {"compound": "O=C(C1c2ccccc2Oc2ccccc21)N1CCCC1", "% Inhibition @ 10 uM": 2.36}, {"compound": "CCC(C)N(C)Cc1cccc(C2(O)CCN(S(=O)(=O)c3ccc(F)c(C)c3)CC2)c1", "note": "(centres unmarked)", "% Inhibition @ 10 uM": 5.53}, {"compound": "CCn1c(C)cc(/C=C2/NC(=O)N(c3ccc(Cl)cc3)C2=O)c1C", "% Inhibition @ 10 uM": 6.4}, {"compound": "COc1cc(C2C(C(=O)c3ccc(Cl)cc3)=C(O)C(=O)N2CCO)ccc1O", "note": "(centres unmarked)", "% Inhibition @ 10 uM": 2.82}, {"compound": "C=CCN(Cc1nc(-c2ccc(Cl)cc2)no1)C(=O)NC1CCCCC1", "% Inhibition @ 10 uM": 3.27}, {"compound": "COc1cc(/C=C2\\C(=O)NC(=S)N(c3ccc(Cl)cc3)C2=O)ccc1O", "% Inhibition @ 10 uM": -5.23}, {"compound": "Cc1cccc(-c2noc(C(C)NC(=O)c3ccco3)n2)c1", "note": "(centres unmarked)", "% Inhibition @ 10 uM": 5.54}, {"compound": "Cc1ccc2oc(C(=O)N(Cc3ccccc3)C3CCS(=O)(=O)C3)c(C)c2c1", "note": "(centres unmarked)", "% Inhibition @ 10 uM": 5.31}]}]}
